Substitutions are numbered along the chain they refer to. These are yes or no findings as the source states them, for the method shown. Some entries that bind do so weakly or less than the wild type. Tags and fused reporters may be left off the sequences shown.
Assays:
Assay in all cases: fluorescent three-hybrid (F3H); GFP-tagged bait tethered to a LacO array by GFP nanobody–LacR in BHK-LacO cells; recruitment of mKate2-tagged prey read as Pearson correlation of green and red channels at the array; cells fixed 24 h after transfection
[1] = target: T1, CTCF N(13–33) fused to eGFP (mouse) (UniProt Q61164)
T1 sequence: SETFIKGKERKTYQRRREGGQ

[2] = target: T2, CTCF (mouse), GFP fusion tethered to the LacO array in the fluorescent three-hybrid assay (mouse) (UniProt Q61164)
T2 sequence: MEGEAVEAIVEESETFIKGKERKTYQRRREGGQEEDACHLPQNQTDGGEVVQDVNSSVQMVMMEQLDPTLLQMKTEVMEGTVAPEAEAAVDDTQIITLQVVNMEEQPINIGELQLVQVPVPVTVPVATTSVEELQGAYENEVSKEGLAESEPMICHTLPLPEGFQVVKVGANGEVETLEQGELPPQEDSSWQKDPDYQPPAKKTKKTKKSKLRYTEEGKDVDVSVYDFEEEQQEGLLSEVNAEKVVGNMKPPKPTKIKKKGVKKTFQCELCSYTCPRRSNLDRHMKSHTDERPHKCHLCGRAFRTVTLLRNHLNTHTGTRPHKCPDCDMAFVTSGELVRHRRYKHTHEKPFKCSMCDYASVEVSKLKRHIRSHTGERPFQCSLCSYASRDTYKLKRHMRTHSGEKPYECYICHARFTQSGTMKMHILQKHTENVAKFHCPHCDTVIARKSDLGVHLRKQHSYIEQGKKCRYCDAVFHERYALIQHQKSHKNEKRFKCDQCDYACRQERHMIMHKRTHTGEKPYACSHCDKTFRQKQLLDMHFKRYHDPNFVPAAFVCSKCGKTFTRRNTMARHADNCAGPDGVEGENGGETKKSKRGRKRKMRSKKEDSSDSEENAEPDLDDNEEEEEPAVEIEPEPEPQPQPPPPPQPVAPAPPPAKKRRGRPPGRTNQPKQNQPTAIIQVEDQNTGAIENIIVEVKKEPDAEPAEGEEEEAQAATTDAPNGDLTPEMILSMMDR

[3] = target: T3, CTCF ΔN(1–265), GFP fusion (F3H) (mouse) (UniProt Q61164)
T3 sequence: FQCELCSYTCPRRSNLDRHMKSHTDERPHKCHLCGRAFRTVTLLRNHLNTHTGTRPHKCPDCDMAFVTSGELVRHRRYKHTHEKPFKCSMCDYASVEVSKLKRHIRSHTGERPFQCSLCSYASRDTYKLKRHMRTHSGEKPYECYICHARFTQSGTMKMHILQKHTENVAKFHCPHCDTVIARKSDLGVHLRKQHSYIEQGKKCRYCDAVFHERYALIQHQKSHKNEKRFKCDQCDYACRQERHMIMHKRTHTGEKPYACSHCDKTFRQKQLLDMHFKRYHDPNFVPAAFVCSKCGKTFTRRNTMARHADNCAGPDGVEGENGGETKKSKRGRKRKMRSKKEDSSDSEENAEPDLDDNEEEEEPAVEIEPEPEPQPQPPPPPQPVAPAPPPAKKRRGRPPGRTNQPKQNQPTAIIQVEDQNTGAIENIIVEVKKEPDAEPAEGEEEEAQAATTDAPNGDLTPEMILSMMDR

[4] = target: T4, BORIS/CTCFL, GFP fusion (F3H) (UniProt A2APF3)
T4 sequence: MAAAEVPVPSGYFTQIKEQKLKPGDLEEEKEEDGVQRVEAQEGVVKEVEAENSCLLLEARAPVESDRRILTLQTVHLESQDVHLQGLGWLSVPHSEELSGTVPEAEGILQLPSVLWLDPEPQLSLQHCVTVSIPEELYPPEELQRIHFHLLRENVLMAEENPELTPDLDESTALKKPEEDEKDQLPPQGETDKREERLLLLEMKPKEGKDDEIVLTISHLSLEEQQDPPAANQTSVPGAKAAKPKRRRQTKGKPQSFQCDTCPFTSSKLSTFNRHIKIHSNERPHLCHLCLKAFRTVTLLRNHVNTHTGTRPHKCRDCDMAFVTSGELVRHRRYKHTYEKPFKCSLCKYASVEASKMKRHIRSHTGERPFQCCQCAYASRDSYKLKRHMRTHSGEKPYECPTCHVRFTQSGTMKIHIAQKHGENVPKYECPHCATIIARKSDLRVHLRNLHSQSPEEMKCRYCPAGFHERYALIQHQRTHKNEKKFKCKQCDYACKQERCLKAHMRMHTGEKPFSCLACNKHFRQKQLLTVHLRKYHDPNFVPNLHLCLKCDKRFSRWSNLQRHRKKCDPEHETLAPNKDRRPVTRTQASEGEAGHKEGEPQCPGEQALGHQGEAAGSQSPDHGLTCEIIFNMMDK

[5] = target: T5, CTCF with alanine substitution of KTYQR, N(23–27), GFP fusion (F3H) (mouse) (UniProt Q61164)
T5 sequence: T2 sequence with K23A, T24A, Y25A, Q26A, R27A

B1: PDS5A (mouse), mKate2 fusion (protein, UniProt Q6A026 1-1332)
chain: MDFTQPKPATALCGVVSADGKIAYPPGVKEITDKITTDEMIKRLKMVVKTFMDMDQDSEDEKQQYLPLALHLASEFFLRNPNKDVRLLVACCLADIFRIYAPEAPYTSHDKLKDIFLFITRQLKGLEDTKSPQFNRYFYLLENLAWVKSYNICFELEDCNEIFIQLFRTLFSVINNSHNTKVQMHMLDLMSSIIMEGDGVTQELLDSILINLIPAHKNLNKQSFDLAKVLLKRTVQTIEACIANFFNQVLVLGRSSVSDLSEHVFDLIQELFAIDPQLLLSVMPQLEFKLKSNDGEERLAVVRLLAKLFGSKDSDLATQNRPLWQCFLGRFNDIHVPVRLESVKFASHCLMNHPDLAKDLTEYLKVRSHDPEEAIRHDVIVTIITAAKRDLALVNDQLLGFVRERTLDKRWRVRKEAMMGLAQLYKKYCLHGEAGKEAAEKVSWIKDKLLHIYYQNSIDDKLLVEKIFAQYLVPHNLETEERMKCLYYLYASLDPNAVKALNEMWKCQNMLRSHVRELLDLHKQPTSEANCSAMFGKLMTIAKNLPDPGKAQDFVKKFNQVLGDDEKLRSQLELLISPTCSCKQADVCVREIARKLANPKQPTNPFLEMVKFLLERIAPVHIDSEAISALVKLMNKSIEGTADDEEEGVSPDSAIRSGLELLKVLSFTHPTSFHSAETYESLLQCLRMEDDKVAEAAIQIFRNTGHKIETDLPQIRSTLIPILHQKAKRGTPHQAKQAVHCIHAIFSNKEVQLAQIFEPLSRSLNADVPEQLITPLVSLGHISMLAPDQFASPMKSVVANFIVKDLLMNDRSTGEKNGKLWSPDEEVSPEVLAKVYLLRLLVRWLLGMKNNQSKSANSTLRLLSAMLVSEGDLTEQKRISKSDMSRLRLAAGSAIMKLAQEPCYHEIITPEQFQLCALVINDECYQVRQIFAQKLHKALVKLLLPLEYMAIFALCAKDPVKERRAHARQCLLKNISIRREYIKQNPMATEKLLSLLPEYVVPYMIHLLAHDPDFTRSQDVDQLRDIKECLWFMLEVLMTKNENNSHAFMKKMAENIKLTRDAQSPDESKTNEKLYTVCDVALCVINSKSALCNADSPKDPVLPMKFFTQPEKDFCNDKSYISEETRVLLLTGKPKPTGVLGTVNKPLSATGRKPYVRSAGTETGSNINANSELSPSAGSRSREQSSEASETGVSENEENPVRIISVTPVKNIDTVKNKEINSDQSTQGNISSDRGKKRIVTAAGAENIQKPDEKVDESGPPAPSKPRRGRRPKSESQGNATKNDDLNKPVSKGRKRAAGSQESLEAGNAKAPKLQDGAKKAVPAERQIDLQR
binding [1]: binds
binding [2]: binds
binding [3]: no binding
binding [4]: no binding
binding [5]: no binding
